# Measured values published in the supplement of paper PMC8285479.
# Where a name gives a salt, the structure may show the parent alone. ± gives the standard deviation of the averaged measurements. In all, about 1,900 compounds were measured (“normalised cell viability (NPI; 0 = phenylarsine oxide control, 1 = DMSO control)”: median about 1, lowest 2% from about 0.039 on). Some of the results follow.
# Tested on: NCI-H1944
# Assay: normalised cell viability (NPI; 0 = phenylarsine oxide control, 1 = DMSO control) (fraction of DMSO control); NCI-H1944 is a non-small cell lung cancer line; higher = more viable cells (less compound toxicity)
# Conditions: 6 days
# [1] = glucocorticoid arm: hydrocortisone 2.75 uM co-treatment, compound 1 µM
# [2] = glucocorticoid arm: hydrocortisone 2.75 uM co-treatment, compound 5 µM
# [3] = glucocorticoid arm: hydrocortisone 2.75 uM pre-treated 2 days and continued, compound 1 µM
# [4] = glucocorticoid arm: hydrocortisone 2.75 uM pre-treated 2 days and continued, compound 5 µM
# [5] = glucocorticoid arm: vehicle, compound 1 µM
# [6] = glucocorticoid arm: vehicle, compound 5 µM
# 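Further: CTB read-out in 384-well plates, mean of triplicate wells, normalised per plate against 1 µM phenylarsine oxide and 0.1% DMSO, compounds added 24 h after seeding.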
smiles,measurement,setting,value
"COc1cc(F)c(F)c(Nc2ccc(I)cc2F)c1NS(=O)(=O)C1(C[C@H](O)CO)CC1 [Refametinib (RDEA119, Bay 86-9766)]",normalised cell viability,[1],0.602 ± 0.015
same,normalised cell viability,[2],0.551 ± 0.016
same,normalised cell viability,[3],0.665 ± 0.015
same,normalised cell viability,[4],0.717 ± 0.043
same,normalised cell viability,[5],0.374 ± 0.0085
same,normalised cell viability,[6],0.213 ± 0.029
CCCCCN(CCCCC)C(=O)C(CCC(=O)O)NC(=O)c1ccc(Cl)c(Cl)c1 (stereo unspecified) [Lorglumide sodium],normalised cell viability,[1],1.007 ± 0.0058
same,normalised cell viability,[2],1.03 ± 0.011
same,normalised cell viability,[3],1 ± 0.015
same,normalised cell viability,[4],1.06 ± 0.1
same,normalised cell viability,[5],0.991 ± 0.0036
same,normalised cell viability,[6],0.993 ± 0.0076
NC1CC1c1ccc(-c2cccc(O)c2)cc1 (stereo unspecified),normalised cell viability,[1],0.973 ± 0.014
same,normalised cell viability,[2],0.938 ± 0.02
same,normalised cell viability,[3],0.962 ± 0.021
same,normalised cell viability,[4],0.941 ± 0.03
same,normalised cell viability,[5],1.01 ± 0.015
same,normalised cell viability,[6],0.998 ± 0.013
CS(=O)(=O)N1CCN(Cc2cc3nc(-c4cccc5[nH]ncc45)nc(N4CCOCC4)c3s2)CC1,normalised cell viability,[1],1.02 ± 0.022
same,normalised cell viability,[2],1.05 ± 0.015
same,normalised cell viability,[3],1.02 ± 0.011
same,normalised cell viability,[4],1.05 ± 0.015
same,normalised cell viability,[5],0.998 ± 0.012
same,normalised cell viability,[6],1.005 ± 0.0087
NCCSSCCN [Cystamine dihydrochloride],normalised cell viability,[1],0.993 ± 0.02
same,normalised cell viability,[2],1.01 ± 0.013
same,normalised cell viability,[3],0.9983 ± 0.0021
same,normalised cell viability,[4],0.9965 ± 0.005
same,normalised cell viability,[5],0.985 ± 0.0062
same,normalised cell viability,[6],1.001 ± 0.0078
Nc1nc2c(ncn2COCCO)c(=O)[nH]1 [Acyclovir],normalised cell viability,[1],0.9907 ± 0.0085
same,normalised cell viability,[2],0.996 ± 0.014
same,normalised cell viability,[3],0.814 ± 0.3
same,normalised cell viability,[4],0.9845 ± 0.005
same,normalised cell viability,[5],0.98 ± 0.01
same,normalised cell viability,[6],0.996 ± 0.001
CCCCCCCCCCCCCCCCCCOCC(COP(=O)([O-])OCC[N+](C)(C)C)OC (stereo unspecified),normalised cell viability,[1],1.006 ± 0.0063
same,normalised cell viability,[2],0.993 ± 0.015
same,normalised cell viability,[3],0.9897 ± 0.0011
same,normalised cell viability,[4],0.989 ± 0.028
same,normalised cell viability,[5],0.9853 ± 0.0049
same,normalised cell viability,[6],0.9957 ± 0.0059
CN1[C@@H]2CC[C@H]1CC(OC(=O)c1c[nH]c3ccccc13)C2 (stereo partly specified) [3-Tropanyl-indole-3-carboxylate hydrochloride],normalised cell viability,[1],1.01 ± 0.011
same,normalised cell viability,[2],0.999 ± 0.011
same,normalised cell viability,[3],1.02 ± 0.017
same,normalised cell viability,[4],1.02 ± 0.015
same,normalised cell viability,[5],0.9923 ± 0.0021
same,normalised cell viability,[6],0.9917 ± 0.004
CCCC1O[C@@H]2C[C@H]3[C@@H]4CCC5=CC(=O)C=C[C@]5(C)[C@H]4[C@@H](O)C[C@]3(C)[C@]2(C(=O)CO)O1 (stereo partly specified) [Budesonide],normalised cell viability,[1],1.003 ± 0.0061
same,normalised cell viability,[2],0.9 ± 0.013
same,normalised cell viability,[3],1.006 ± 0.0063
same,normalised cell viability,[4],0.978 ± 0.023
same,normalised cell viability,[5],0.785 ± 0.039
same,normalised cell viability,[6],0.649 ± 0.045
"NCCC1CCCC(CCN)N1 (stereo unspecified) [MDL 26,630 trihydrochloride]",normalised cell viability,[1],0.9937 ± 0.0075
same,normalised cell viability,[2],0.981 ± 0.021
same,normalised cell viability,[3],0.9927 ± 0.0075
same,normalised cell viability,[4],1.04 ± 0.11
same,normalised cell viability,[5],0.9923 ± 0.0042
same,normalised cell viability,[6],1 ± 0.011
COC(=O)c1c(C)[nH]c(C)c1C(=O)c1ccccc1Cc1ccccc1,normalised cell viability,[1],1.01 ± 0.016
same,normalised cell viability,[2],1.027 ± 0.0058
same,normalised cell viability,[3],1.01 ± 0.011
same,normalised cell viability,[4],1.01 ± 0.011
same,normalised cell viability,[5],1.01
same,normalised cell viability,[6],1.01 ± 0.014
COc1cc(C(O)CO)ccc1OS(=O)(=O)O (stereo unspecified) [MHPG sulfate potassium],normalised cell viability,[1],1.006 ± 0.0063
same,normalised cell viability,[2],1.01 ± 0.014
same,normalised cell viability,[3],1.01
same,normalised cell viability,[4],1.01 ± 0.011
same,normalised cell viability,[5],1.007 ± 0.0058
same,normalised cell viability,[6],1.01
Nc1nc(N)c2nc(CNc3ccc(C(=O)N[C@@H](CCC(=O)O)C(=O)O)cc3)cnc2n1 [Aminopterin],normalised cell viability,[1],0.983 ± 0.0095
same,normalised cell viability,[2],0.764 ± 0.031
same,normalised cell viability,[3],0.981 ± 0.012
same,normalised cell viability,[4],0.985 ± 0.013
same,normalised cell viability,[5],0.984 ± 0.0095
same,normalised cell viability,[6],0.514 ± 0.016
CCCCN(Cc1ccc(C(=O)NO)cc1)C(=O)Nc1ccccc1 [Nexturastat A],normalised cell viability,[1],0.949 ± 0.017
same,normalised cell viability,[2],0.9863 ± 0.0097
same,normalised cell viability,[3],0.97 ± 0.02
same,normalised cell viability,[4],0.963 ± 0.027
same,normalised cell viability,[5],1.001 ± 0.009
same,normalised cell viability,[6],0.967 ± 0.014
COC(=O)N[C@H](C(=O)N1CCC[C@H]1c1ncc(-c2ccc(-c3ccc(-c4cnc([C@@H]5CCCN5C(=O)[C@@H](NC(=O)OC)C(C)C)[nH]4)cc3)cc2)[nH]1)C(C)C,normalised cell viability,[1],1.03 ± 0.015
same,normalised cell viability,[2],1.073 ± 0.0058
same,normalised cell viability,[3],1.01 ± 0.015
same,normalised cell viability,[4],1.08 ± 0.021
same,normalised cell viability,[5],1.03 ± 0.029
same,normalised cell viability,[6],0.972 ± 0.011
O=C1O/C(=C/Br)CCC1c1cccc2ccccc12 (stereo unspecified) [Bromoenol lactone],normalised cell viability,[1],1.02
same,normalised cell viability,[2],1.02 ± 0.026
same,normalised cell viability,[3],1.01 ± 0.01
same,normalised cell viability,[4],1.02
same,normalised cell viability,[5],0.998 ± 0.013
same,normalised cell viability,[6],1.01
CNC(=O)c1ccccc1Nc1nc(Nc2ccc(N3CCOCC3)cc2OC)ncc1Cl,normalised cell viability,[1],0.439 ± 0.055
same,normalised cell viability,[2],0.291 ± 0.0087
same,normalised cell viability,[3],0.548 ± 0.016
same,normalised cell viability,[4],0.414 ± 0.0046
same,normalised cell viability,[5],0.489 ± 0.038
same,normalised cell viability,[6],0.154 ± 0.017
CC1=C(C(=O)Nc2cc3cn[nH]c3cc2F)C(c2ccc(C(F)(F)F)cc2)CC(=O)N1 (stereo unspecified),normalised cell viability,[1],0.9897 ± 0.0067
same,normalised cell viability,[2],0.9623 ± 0.009
same,normalised cell viability,[3],0.966 ± 0.018
same,normalised cell viability,[4],0.99 ± 0.019
same,normalised cell viability,[5],0.9947 ± 0.0021
same,normalised cell viability,[6],1 ± 0.0087
CC[C@H](NC(=O)c1c(C)c(-c2ccccc2)nc2ccccc12)c1ccccc1,normalised cell viability,[1],1.007 ± 0.0058
same,normalised cell viability,[2],1.023 ± 0.0058
same,normalised cell viability,[3],1.005 ± 0.0081
same,normalised cell viability,[4],1.004 ± 0.0085
same,normalised cell viability,[5],0.99 ± 0.0027
same,normalised cell viability,[6],0.987 ± 0.012
"N/C(=N\C(=O)c1nc(Cl)c(N)nc1N)NCc1ccc(Cl)c(Cl)c1 [3',4'-Dichlorobenzamil hydrochloride]",normalised cell viability,[1],0.99 ± 0.0089
same,normalised cell viability,[2],0.0646 ± 0.03
same,normalised cell viability,[3],0.998 ± 0.013
same,normalised cell viability,[4],0.862 ± 0.014
same,normalised cell viability,[5],0.98667 ± 0.00058
same,normalised cell viability,[6],0.0118 ± 0.0064
NCC(O)(CS(=O)(=O)O)c1ccc(Cl)cc1 (stereo unspecified) [2-Hydroxysaclofen],normalised cell viability,[1],0.9957 ± 0.004
same,normalised cell viability,[2],1.01 ± 0.014
same,normalised cell viability,[3],0.994 ± 0.011
same,normalised cell viability,[4],0.995 ± 0.022
same,normalised cell viability,[5],0.992 ± 0.011
same,normalised cell viability,[6],1.01 ± 0.013
OCCN1CCN(CCCN2c3ccccc3C=Cc3ccccc32)CC1 [Opipramol dihydrochloride],normalised cell viability,[1],0.97 ± 0.023
same,normalised cell viability,[2],0.95 ± 0.019
same,normalised cell viability,[3],0.98 ± 0.019
same,normalised cell viability,[4],0.995 ± 0.0071
same,normalised cell viability,[5],1.01 ± 0.011
same,normalised cell viability,[6],1.01 ± 0.011
O=C(O)C=C1CCCc2ccccc2C1O (stereo unspecified),normalised cell viability,[1],0.987 ± 0.012
same,normalised cell viability,[2],0.948 ± 0.026
same,normalised cell viability,[3],0.987 ± 0.02
same,normalised cell viability,[4],0.994 ± 0.044
same,normalised cell viability,[5],0.983 ± 0.0069
same,normalised cell viability,[6],0.987 ± 0.01
CC(=O)CCCCn1c(=O)c2c(ncn2C)n(C)c1=O [Pentoxifylline],normalised cell viability,[1],0.999 ± 0.011
same,normalised cell viability,[2],1.01 ± 0.031
same,normalised cell viability,[3],1.01
same,normalised cell viability,[4],0.855 ± 0.26
same,normalised cell viability,[5],0.995 ± 0.002
same,normalised cell viability,[6],0.997 ± 0.012
O=c1c(-c2ccc(O)cc2)coc2cc(O)ccc12 [Daidzein],normalised cell viability,[1],0.99 ± 0.018
same,normalised cell viability,[2],0.995 ± 0.014
same,normalised cell viability,[3],1 ± 0.014
same,normalised cell viability,[4],0.9963 ± 0.0011
same,normalised cell viability,[5],0.98333 ± 0.00058
same,normalised cell viability,[6],0.9877 ± 0.0042
CC(C)NC[C@H](O)COc1cccc2ccccc12 [(S)-(-)-Propranolol hydrochloride],normalised cell viability,[1],1.003 ± 0.0058
same,normalised cell viability,[2],0.989 ± 0.007
same,normalised cell viability,[3],1.02 ± 0.023
same,normalised cell viability,[4],1.04 ± 0.021
same,normalised cell viability,[5],0.9957 ± 0.0025
same,normalised cell viability,[6],0.992 ± 0.0072
